Reference: the supplement of paper PMC3334620
Over roughly 33,000 sequences, “E-score (-0.5 to 0.5)” has its median near -0.012; the highest 2% begin near 0.29. The list shows a part of the results.

The sequences below were run against T1, Ybr033w (UniProt P38073) (assay: PBM E-score (8-mer binding enrichment) (E-score (-0.5 to 0.5)); higher = stronger / more preferred TF binding; most listed sequences are background and not binding sites). Conditions: protein concentration: 200 nM; construct: GST-full length.
T1 sequence: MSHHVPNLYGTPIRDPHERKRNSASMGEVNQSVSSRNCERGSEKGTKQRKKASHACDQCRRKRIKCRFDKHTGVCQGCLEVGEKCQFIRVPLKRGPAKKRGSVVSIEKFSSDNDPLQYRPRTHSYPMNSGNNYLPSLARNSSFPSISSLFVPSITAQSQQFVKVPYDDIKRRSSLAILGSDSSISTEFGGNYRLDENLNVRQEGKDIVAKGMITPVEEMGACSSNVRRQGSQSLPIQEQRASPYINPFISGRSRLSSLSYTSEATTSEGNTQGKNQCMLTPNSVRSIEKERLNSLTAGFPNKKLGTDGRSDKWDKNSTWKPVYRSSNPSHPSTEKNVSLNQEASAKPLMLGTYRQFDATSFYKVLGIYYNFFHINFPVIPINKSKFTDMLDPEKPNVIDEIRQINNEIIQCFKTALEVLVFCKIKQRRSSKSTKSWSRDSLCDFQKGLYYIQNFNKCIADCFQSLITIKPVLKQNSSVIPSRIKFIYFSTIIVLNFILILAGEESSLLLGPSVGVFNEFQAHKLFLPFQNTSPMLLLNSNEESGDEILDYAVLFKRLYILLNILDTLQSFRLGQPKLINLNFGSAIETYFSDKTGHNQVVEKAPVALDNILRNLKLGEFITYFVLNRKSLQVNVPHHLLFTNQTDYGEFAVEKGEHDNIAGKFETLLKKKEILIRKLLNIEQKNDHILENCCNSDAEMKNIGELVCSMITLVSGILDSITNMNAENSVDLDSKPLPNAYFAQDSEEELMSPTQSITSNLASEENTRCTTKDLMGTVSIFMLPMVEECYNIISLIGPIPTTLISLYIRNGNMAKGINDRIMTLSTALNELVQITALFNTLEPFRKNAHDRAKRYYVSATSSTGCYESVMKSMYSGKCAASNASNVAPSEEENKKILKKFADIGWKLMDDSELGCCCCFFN
Procedure, shortened: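 Yeast transcription factors carrying a GST tag, as full-length proteins or DNA-binding domains, were produced by PURExpress in vitro transcription/translation. About 100-200 nM protein was applied to universal all-10-mer Agilent arrays, double-stranded by primer extension on fresh or once-stripped slides. Bound protein was detected with fluorescent anti-GST, and scans were normalised with masliner. The Universal PBM Analysis Suite gave each ungapped eight-base word, pooled with its reverse complement, an E-score, a modified Wilcoxon-Mann-Whitney statistic.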

Sequence	PBM E-score
CGGTGCCC	-0.278
AAGGTCAT	0.0234
CTTAGTTA	0.115
ACAGTCGG	-0.121
ATCCAAGG	-0.0334
GGATGACA	-0.124
AGTCCTAA	0.00097
TAACACGA	0.138
TGGACTAA	-0.0499
AGCAAAAA	0.319
ACACACGT	0.0046
CTGGGACC	-0.267
CCGCGATC	-0.045
ACTGTGAC	0.0498
GGCAAGCA	-0.0816
AACCATAG	0.0244
CTGCTCAA	-0.0974
CATTCCAC	0.0456
GGCTTAGA	-0.0593
AACTCCAG	0.0269
ATTTAAAG	0.227
AATAAGGA	0.0483
ACTTCACT	0.168
AGTTGGCA	0.0579
GTGATAGA	0.0453

Sequence	PBM E-score
GCAATGAA	0.202
GCGGAAGC	-0.201
ATCCTCGC	0.0364
CGCGCGCA	-0.0239
GCACGTCC	-0.152
AACGGGAC	-0.227
TGTTCTAA	0.181
CACCCCGA	-0.0672
CCTAGAGG	-0.298
AAGTTACT	0.194
GTTGACCA	0.0248
CGTACGGA	-0.0401
ACTATACC	0.0721
ACCCGGGC	-0.234
ATAAGCAG	0.0569
AGCCGAGC	-0.225
ATATCTCG	0.101
CATGCGTC	-0.181
CGGTATGA	0.0788
GAGCGTCA	-0.123
GAGCGAAC	-0.131
TCAATACA	0.134
ATAACACC	0.172
GTGTGCTA	0.0165
AGCGAGTG	0.126

Sequence	PBM E-score
AATGAAAG	0.0828
AAGAGTCA	-0.00704
AGTCGACG	0.155
AGAGCACC	-0.268
GCCGTGAA	-0.0874
TGGCGCAA	-0.119
ATTAACTC	0.291
GGTGTCTA	0.115
GGGTGAAA	0.0993
AGATTAAG	0.214
AGGGTAGC	-0.127
CTACTCGA	-0.00166
AATTAGCA	0.199
TCACCGAA	-0.00463
ACGTGATA	0.0992
AAAAAAGA	0.0787
ACCGAAAG	-0.0543
CATACTCG	-0.0918
AGACAGCA	-0.00375
TACTACAA	0.217
AAGTGTTA	0.0887
ACATAAAC	0.277
AGCGGACA	-0.0457
ATTAACGC	0.0302
TCGCCAGA	0.00477

Sequence	PBM E-score
AATAAACC	0.213
AAATGGTT	0.0633
AATATAAC	0.216
CGCCCGAC	-0.156
ATGGGCCA	-0.117
ACACGAGA	-0.172
CAGTCCAA	-0.213
ACGAGAAG	-0.208
GTAGGATA	-0.0115
CTAGTACC	-0.152
ATGAAGTC	0.048
TAAGCATA	0.128
AATCCACG	-0.0107
CAACGTGA	-0.0799
CCCGAGTC	-0.111
CCGCGCCG	-0.225
ATGATGCG	0.0945
TACGTTCA	0.137
CACACCAC	0.126
AATCCTTC	-0.00057
ATGCGCGG	-0.134
AAACTGCG	-0.0825
GTTTGTTA	0.145
ATGGCAGA	0.0056
ATTGATCG	0.13

Sequence	PBM E-score
TACATATA	0.249
CCATCTTC	0.132
TCACAGGA	0.0968
TGTTGTAA	0.139
AGACTAGA	-0.235
ACACCAAC	-0.0973
GGTCCGAA	-0.0173
ACGCTACA	0.0427
GCGGAACC	-0.0564
ATTTACAA	0.31
ATAACTTG	0.216
TCCGTCAA	0.0892
AATAACCG	-0.0165
AATTTCAG	-0.0419
CCTTGCCC	-0.0551
AAAACTTA	0.362
AGCCAAGG	0.00307
CTAGTCGC	-0.19
CTAGACAA	-0.0833
CAGGAACA	0.401
ACGGCCCC	-0.295
ACAGCAAG	0.228
GAAGCGGC	-0.317
AACTAGCC	0.112
GACGTGAA	-0.0824

Sequence	PBM E-score
AGGGGGGC	-0.417
ACCTTCCT	-0.196
CCGTAGAC	-0.079
AACCCCTC	-0.178
CAATAACG	0.0288
CCCGATAA	-0.276
TCTGTGAA	0.157
TATATTCA	0.303
GTATTGCA	0.0942
CCAAGTGG	0.0212
CGCTCGGA	0.0245
TAGTACCA	0.0533
CAGTTATA	0.074
CGGCGCGC	-0.0829
ATCCAAAC	0.169
AGATTCAC	-0.0233
AACCAGCC	-0.0273
ACGTGTTC	-0.114
TACGCTAA	0.0698
TATATGGA	0.0384
CAAAAAAA	0.293
CATCAGCG	-0.188
AGTTCCAC	0.12
ACCTAGAT	-0.147
CGTCCGTA	-0.142

Sequence	PBM E-score
CAACAATC	0.256
CTTGTCCA	0.0362
CTTATTTA	0.106
TAGGCCGA	-0.0928
GCACCGGA	-0.12
CCAATACC	-0.0674
AAAAGGTC	-0.122
CAACATGC	0.101
CTGTTTTA	0.206
CGAGTGGA	0.0174
CACGTACG	-0.121
AGACGGTC	-0.222
TGAGAGAA	0.0793
ATAGCGAA	0.153
GTCACAGA	-0.043
CAACTCGC	0.0613
CCCTCTAA	-0.184
CAGGGTCG	-0.201
AGGTTCCG	0.00362
AAAGATCC	0.3
CTCTTTTA	-0.0348
AGCCATAC	-0.196
